Data from the supplement of paper PMC10126150.
Values marked as one replicate rest on one cluster of the flow cell; about a third of the high ones do not repeat.
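Further: ATP exposure 15 min at 22 °C before imaging.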

The sequences below were run on ATP (assay: switch fluorescence ratio, 500 uM ATP over buffer (Cy3 cluster intensity, sum of 5 cycles each) (fold (ratio)); higher = stronger signal-on switching upon ATP binding; sequences stand for … in TCGTCGGCAGCGTCAGATGTGTATAAGAGACAGTTTTTTTTTTTTTTTTTTTTTTTTT…TC). Conditions: aptamer strand: ATP DNA aptamer (quencher-CACCTGGGGGAGTATTGCGGAGGAAGG + anchor), 100 nM annealed; ATP concentration: 500 uM; one replicate.
How it was run: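 Between each of five buffer/ATP cycles, the flow-cell was stripped with NaOH and re-annealed. Each cycle imaged Cy3-labelled switching-strand clusters, annealed to 100 nM quencher-labelled ATP aptamer on a modified Illumina MiSeq flow-cell, first in selection buffer and then after 15 min with 500 uM ATP at 22 °C. The fluorescence ratio is summed target-cycle over summed buffer-cycle Cy3 intensity per cluster, averaged per switch-domain sequence, with clusters outside 100-1000 RFU excluded.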
Work on CGAGACTGTA yielded a switch fluorescence ratio of 1.04.
In the case of CGAGAGATAA, the switch fluorescence ratio is reported as 1.03.
CGAGAGGCA was tested, and the switch fluorescence ratio was 1.02.
Sequence CGAGATATCT has a switch fluorescence ratio of 0.992.
In the case of CGAGATATTT, the switch fluorescence ratio is reported as 0.992.
In the case of CGAGATGATC, the switch fluorescence ratio is reported as 1.06.
For CGAGCAATGT, the switch fluorescence ratio was 1.08.
In the case of CGAGCACAAG, the switch fluorescence ratio is reported as 1.4.
In the case of CGAGCATACC, the switch fluorescence ratio is reported as 2.
CGAGCATACG showed a switch fluorescence ratio of 2.3.
CGAGCGGCGG gave a switch fluorescence ratio of 0.918.
Work on CGAGCGGTCT yielded a switch fluorescence ratio of 1.08.
For CGAGCGTCGG, the switch fluorescence ratio was 1.02.
CGAGCTAATG gave a switch fluorescence ratio of 1.15.
CGAGCTGGTA was tested, and the switch fluorescence ratio was 1.03.
Work on CGAGGCCAAG yielded a switch fluorescence ratio of 1.02.
CGAGGCCCAG gave a switch fluorescence ratio of 1.03.
CGAGGCTACG gave a switch fluorescence ratio of 1.13.
In the case of CGAGGGATAA, the switch fluorescence ratio is reported as 1.29.
For CGAGGGCAGA, the switch fluorescence ratio was 1.07.
CGAGGTCCAA showed a switch fluorescence ratio of 1.05.
CGAGTAGGTC was tested, and the switch fluorescence ratio was 1.01.
CGAGTCAAAT showed a switch fluorescence ratio of 1.09.
With CGAGTCCGTC the switch fluorescence ratio was 1.
With CGAGTGACTC the switch fluorescence ratio was 1.01.
For CGATAAAGAT, the switch fluorescence ratio was 1.01.
CGATAAAGTC was tested, and the switch fluorescence ratio was 1.02.
Sequence CGATACACGA has a switch fluorescence ratio of 1.09.
In the case of CGATAGGGAC, the switch fluorescence ratio is reported as 1.03.
For CGATAGTAGT, the switch fluorescence ratio was 0.942.
Work on CGATAGTGAT yielded a switch fluorescence ratio of 0.977.
For CGATATGAT, the switch fluorescence ratio was 0.976.
In the case of CGATATGCAT, the switch fluorescence ratio is reported as 1.03.
CGATATGTAA gave a switch fluorescence ratio of 0.984.
CGATATTAAG gave a switch fluorescence ratio of 0.937.
For CGATATTCGA, the switch fluorescence ratio was 1.03.
For CGATCACTCA, the switch fluorescence ratio was 0.996.
CGATCAGACC was tested, and the switch fluorescence ratio was 1.04.
Sequence CGATCCATGC has a switch fluorescence ratio of 1.39.
With CGATCCTCGG the switch fluorescence ratio was 1.01.
CGATCGGCTT showed a switch fluorescence ratio of 1.04.
CGATCTTCAA gave a switch fluorescence ratio of 1.02.
For CGATCTTTGC, the switch fluorescence ratio was 0.991.
For CGATGAAAGT, the switch fluorescence ratio was 0.957.
In the case of CGATGAAGCA, the switch fluorescence ratio is reported as 0.952.
Work on CGATGAAGTT yielded a switch fluorescence ratio of 0.965.
CGATGAGGGA showed a switch fluorescence ratio of 0.984.
Sequence CGATGCCAGG has a switch fluorescence ratio of 1.37.
Work on CGATGCCTTT yielded a switch fluorescence ratio of 0.999.
For CGATGCTGCT, the switch fluorescence ratio was 0.978.
CGATGGGAGA showed a switch fluorescence ratio of 0.974.
With CGATGGTGC the switch fluorescence ratio was 1.04.
In the case of CGATGGTGCG, the switch fluorescence ratio is reported as 1.03.
For CGATGGTGTA, the switch fluorescence ratio was 0.988.
With CGATGTATT the switch fluorescence ratio was 0.991.
Sequence CGATTACAGC has a switch fluorescence ratio of 1.
For CGATTATGTG, the switch fluorescence ratio was 0.973.
In the case of CGATTATTCA, the switch fluorescence ratio is reported as 1.01.
In the case of CGATTATTTT, the switch fluorescence ratio is reported as 1.
Sequence CGATTCCTT has a switch fluorescence ratio of 1.06.
CGATTCTGTC gave a switch fluorescence ratio of 1.11.
CGATTGTCAG showed a switch fluorescence ratio of 0.99.
Work on CGATTTAGTT yielded a switch fluorescence ratio of 1.03.
In the case of CGATTTTAT, the switch fluorescence ratio is reported as 1.
With CGCAAAACAA the switch fluorescence ratio was 1.11.
With CGCAACGTTG the switch fluorescence ratio was 0.976.
CGCAAGATGA was tested, and the switch fluorescence ratio was 2.48.
CGCAATGAGA gave a switch fluorescence ratio of 1.9.
With CGCAATTGGG the switch fluorescence ratio was 2.4.
CGCAATTTTG was tested, and the switch fluorescence ratio was 3.3.
With CGCACACGCT the switch fluorescence ratio was 1.1.
With CGCACAGACA the switch fluorescence ratio was 1.4.
CGCACCCGGC gave a switch fluorescence ratio of 1.03.
CGCACCTAGC was tested, and the switch fluorescence ratio was 1.19.
In the case of CGCAGAACCG, the switch fluorescence ratio is reported as 0.981.
With CGCAGACTAA the switch fluorescence ratio was 1.36.
CGCAGACTCA gave a switch fluorescence ratio of 4.7.
With CGCAGATAGC the switch fluorescence ratio was 1.79.
For CGCAGGGTCG, the switch fluorescence ratio was 1.
For CGCAGTCGCG, the switch fluorescence ratio was 1.04.
For CGCAGTCGTT, the switch fluorescence ratio was 1.07.
For CGCAGTGGTG, the switch fluorescence ratio was 1.07.
CGCATACTAG was tested, and the switch fluorescence ratio was 4.42.
CGCATAGAGT was tested, and the switch fluorescence ratio was 1.08.
Sequence CGCATATGCT has a switch fluorescence ratio of 2.13.
For CGCATGAACG, the switch fluorescence ratio was 1.04.
CGCATGGTTT showed a switch fluorescence ratio of 1.08.
In the case of CGCATTATGT, the switch fluorescence ratio is reported as 1.44.
For CGCATTGCGT, the switch fluorescence ratio was 1.01.
Work on CGCATTGGGC yielded a switch fluorescence ratio of 1.23.
CGCATTTGAG was tested, and the switch fluorescence ratio was 1.14.
CGCATTTTAG gave a switch fluorescence ratio of 1.14.
CGCATTTTCG was tested, and the switch fluorescence ratio was 1.11.
For CGCCAAAATC, the switch fluorescence ratio was 1.69.
Sequence CGCCAAACAT has a switch fluorescence ratio of 0.985.
For CGCCAATCCT, the switch fluorescence ratio was 1.34.
CGCCACTGGA gave a switch fluorescence ratio of 1.07.
Sequence CGCCATAGT has a switch fluorescence ratio of 1.35.
With CGCCATATTA the switch fluorescence ratio was 0.973.
Sequence CGCCATTCGA has a switch fluorescence ratio of 1.05.
Sequence CGCCATTTCC has a switch fluorescence ratio of 1.2.
CGCCCAGGGA was tested, and the switch fluorescence ratio was 2.85.
With CGCCCGCCAG the switch fluorescence ratio was 1.02.
CGCCCGGGAG gave a switch fluorescence ratio of 1.11.
For CGCCCTGTCG, the switch fluorescence ratio was 1.09.
CGCCGCCAGT was tested, and the switch fluorescence ratio was 2.1.
For CGCCGGAGTG, the switch fluorescence ratio was 1.03.
CGCCGGTGTC showed a switch fluorescence ratio of 1.03.
CGCCGTACCA gave a switch fluorescence ratio of 1.05.
For CGCCGTCCTT, the switch fluorescence ratio was 0.959.
In the case of CGCCGTGTGC, the switch fluorescence ratio is reported as 1.11.
Sequence CGCCGTTGCT has a switch fluorescence ratio of 1.02.
With CGCCTACTAA the switch fluorescence ratio was 1.03.
In the case of CGCCTAGTTG, the switch fluorescence ratio is reported as 1.03.
In the case of CGCCTATATC, the switch fluorescence ratio is reported as 1.41.
For CGCCTCCCTT, the switch fluorescence ratio was 1.56.
In the case of CGCCTCTCTA, the switch fluorescence ratio is reported as 1.03.
CGCCTGCGAG was tested, and the switch fluorescence ratio was 0.984.
In the case of CGCCTGGCTC, the switch fluorescence ratio is reported as 1.
CGCCTGGGCG gave a switch fluorescence ratio of 1.03.
CGCCTTTCTT gave a switch fluorescence ratio of 0.998.
With CGCGACAAGT the switch fluorescence ratio was 0.995.
Sequence CGCGATAAAC has a switch fluorescence ratio of 1.8.
CGCGCCAGAG showed a switch fluorescence ratio of 1.03.
In the case of CGCGCGCCTA, the switch fluorescence ratio is reported as 0.988.
CGCGCTCAGG was tested, and the switch fluorescence ratio was 1.27.
For CGCGCTCTAT, the switch fluorescence ratio was 1.11.
CGCGGAATTG showed a switch fluorescence ratio of 0.995.
In the case of CGCGGCGTGA, the switch fluorescence ratio is reported as 1.03.
CGCGGCTCGG showed a switch fluorescence ratio of 1.
CGCGGGGTTT gave a switch fluorescence ratio of 0.986.
Work on CGCGGTAAA yielded a switch fluorescence ratio of 1.03.
CGCGTAGATC gave a switch fluorescence ratio of 0.992.
For CGCGTATGCC, the switch fluorescence ratio was 1.01.
CGCGTATTAG gave a switch fluorescence ratio of 1.02.
CGCGTCCCTG showed a switch fluorescence ratio of 0.97.
CGCGTCGGCA gave a switch fluorescence ratio of 1.01.
Work on CGCGTGATGA yielded a switch fluorescence ratio of 0.959.
In the case of CGCGTGCCGT, the switch fluorescence ratio is reported as 1.09.
CGCGTGTAGG was tested, and the switch fluorescence ratio was 0.972.
CGCGTTAGGC gave a switch fluorescence ratio of 0.983.
Work on CGCGTTTGGC yielded a switch fluorescence ratio of 1.07.
CGCTAATAGT was tested, and the switch fluorescence ratio was 1.99.
CGCTAGAAGA showed a switch fluorescence ratio of 0.983.
Work on CGCTAGCGG yielded a switch fluorescence ratio of 0.989.
With CGCTAGGAAC the switch fluorescence ratio was 1.11.
CGCTAGGAAG showed a switch fluorescence ratio of 0.983.
CGCTAGTTCG gave a switch fluorescence ratio of 1.02.
Work on CGCTATCGTG yielded a switch fluorescence ratio of 1.09.
CGCTATTAAC was tested, and the switch fluorescence ratio was 3.12.
CGCTCACACT was tested, and the switch fluorescence ratio was 1.09.
CGCTCAGAAT was tested, and the switch fluorescence ratio was 1.04.
CGCTCCATGT was tested, and the switch fluorescence ratio was 1.08.
CGCTCCTTGG showed a switch fluorescence ratio of 1.08.
Work on CGCTCGAGAT yielded a switch fluorescence ratio of 1.04.
CGCTCGCTGT was tested, and the switch fluorescence ratio was 1.25.
CGCTCTCGA gave a switch fluorescence ratio of 1.01.
Sequence CGCTCTTCGA has a switch fluorescence ratio of 1.03.
With CGCTGAGTTA the switch fluorescence ratio was 0.993.
In the case of CGCTGATGTT, the switch fluorescence ratio is reported as 1.03.
Work on CGCTGCGAGT yielded a switch fluorescence ratio of 0.979.
CGCTGGGGTC gave a switch fluorescence ratio of 1.02.
For CGCTGGTCCG, the switch fluorescence ratio was 0.975.
Work on CGCTGTCCTC yielded a switch fluorescence ratio of 1.17.
In the case of CGCTGTGTTT, the switch fluorescence ratio is reported as 0.996.
CGCTGTTATC showed a switch fluorescence ratio of 1.05.
With CGCTTCATGA the switch fluorescence ratio was 1.03.
CGCTTGGTGG gave a switch fluorescence ratio of 0.986.
For CGCTTGTGCG, the switch fluorescence ratio was 0.929.
For CGCTTGTGGG, the switch fluorescence ratio was 1.04.
CGCTTTAAAA gave a switch fluorescence ratio of 0.945.
With CGCTTTGTTC the switch fluorescence ratio was 1.04.
In the case of CGGAAACCTC, the switch fluorescence ratio is reported as 1.04.
CGGAAACTGG was tested, and the switch fluorescence ratio was 0.984.
Sequence CGGAAATCAC has a switch fluorescence ratio of 1.08.
CGGAACCCAG was tested, and the switch fluorescence ratio was 0.954.
CGGAAGGAGA showed a switch fluorescence ratio of 1.03.
CGGAAGTACA was tested, and the switch fluorescence ratio was 1.13.
For CGGAATATCG, the switch fluorescence ratio was 1.01.
CGGAATCTGA gave a switch fluorescence ratio of 0.987.
CGGAATGGAT was tested, and the switch fluorescence ratio was 0.947.
CGGAATGGGT gave a switch fluorescence ratio of 0.99.
Sequence CGGACAGATG has a switch fluorescence ratio of 1.02.
CGGACAGGGC gave a switch fluorescence ratio of 1.08.
For CGGACCCGGT, the switch fluorescence ratio was 1.09.
For CGGACCGGCT, the switch fluorescence ratio was 1.01.
Work on CGGACCGGG yielded a switch fluorescence ratio of 0.972.
In the case of CGGACTCAGT, the switch fluorescence ratio is reported as 1.
Sequence CGGAGGGTTG has a switch fluorescence ratio of 1.02.
CGGAGGTTAT gave a switch fluorescence ratio of 1.03.
With CGGAGTGATT the switch fluorescence ratio was 1.38.
In the case of CGGATGTGGG, the switch fluorescence ratio is reported as 0.983.
For CGGATTGAT, the switch fluorescence ratio was 0.995.
CGGATTGTT gave a switch fluorescence ratio of 1.04.
CGGATTTACT showed a switch fluorescence ratio of 1.06.
For CGGCACCAGC, the switch fluorescence ratio was 1.02.
CGGCACTCCG gave a switch fluorescence ratio of 1.
Sequence CGGCAGAGCG has a switch fluorescence ratio of 1.03.
For CGGCAGGCGA, the switch fluorescence ratio was 1.04.
CGGCAGTTGG gave a switch fluorescence ratio of 1.04.
